In publication PMC12136788:
Where a chain is given by its changes, count along the chain named. Some of the results follow.

T1: UNK ZnF1-3 (human, UniProt Q9C0B0 31-174)
T1 sequence: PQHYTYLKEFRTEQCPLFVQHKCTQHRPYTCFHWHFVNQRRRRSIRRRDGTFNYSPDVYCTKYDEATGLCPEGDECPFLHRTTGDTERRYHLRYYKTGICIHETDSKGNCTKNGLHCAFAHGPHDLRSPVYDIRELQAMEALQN

B1: chr2:232320318:232320319:-_ENSG00000115053_ENST00000322723|hu_hu|FALSE|FALSE (ssRNA)
RNA: GGGAGUUCUACAGUCCGACGAUCACUGUUGAAGUCUACAAAACCAAACCCUUUGGAGGACCCAGUUUCCCGGUCAGUAACUAUCCUUGCCCGAACGGAGCCGUCAAAUGACUCCUUUAAUGUCUCUUCAGUGGUAUCCUCAGACAACAGAGGAUUGAGCAUCA
B2: 172315744_172336697_262_CDS_ENSG00000113719_ENST00000393784|human|control|control (ssRNA)
RNA: GGGAGUUCUACAGUCCGACGAUCUGGGUCAUCGACAUAGAGCUCGUUCACAACUUCUGUCGUUAUAAAUCCGGUGAGCUCCGAGAGGAAGAGGAAGAGGAUGAAGAGGCAGCAGCAGAUGGAGAUAAUGGCCCCGGUGUACGUCAACAGAGGAUUGAGCAUCA
B3: chr4:169848332:169848333:+_ENSG00000129116_ENST00000507735|hu_hu|motif|central (ssRNA)
RNA: GGGAGUUCUACAGUCCGACGAUCUUGCAUUUUCCUUCAUUCUCCUCCCUACUCCUUCCAAACCCCUGAUUCCUCCAAAUACGGUAUAUGCCUUGGUCAUUUGGGUGGUUUGGAUGCUUUCUGUGGAAUGAACUGUAAUAUAUUCAACAGAGGAUUGAGCAUCA
B4: 144935909_144936029_2875_3pUTR_ENSMUSG00000038970_ENSMUST00000041804|mouse|control|control (ssRNA)
RNA: GGGAGUUCUACAGUCCGACGAUCAAAUGGCUCAUUUUGUAAAUCCUGUCUCGAUUCUGGAAGACAACUCUCCACGCUACCCUGAGCAGUAAUAUCAUUCACAAGGAUGGGGUGUCUGUUGGUUAGACUCAAGGCCUCCUUGCUCAACAGAGGAUUGAGCAUCA
B5: chr1:60041781:60041782:+_ENSMUSG00000041040_ENSMUST00000036540|mus_hu|mus_mus_mus_hu_False|1_108 (ssRNA)
RNA: GGGAGUUCUACAGUCCGACGAUCAAGAGGAGUGAAUUAAAGUAAAUGCAGUAGUGGCAAAUUUUCUUUUAUUUUCCUUCACAAAAGAAAAUCUUUAUAACCCAGUCCUAGUCUUGGACAUAGUGAAAGCUAUAAAUGCCACUGCAACAGAGGAUUGAGCAUCA
B6: chr19:26705166:26705167:+_ENSMUSG00000024921_ENSMUST00000025862|mus_mus|FALSE|FALSE (ssRNA)
RNA: GGGAGUUCUACAGUCCGACGAUCUCCAGAUAUAGGGCUAGAGACGUGCUCCGGGGCUCCCAGAGGAGACGGAUGUGGUGACAUAUAACCUUGGCUGUGCUGGUCCAUGGGGCUCUGUGGAGGGCCCAUUCCUGGGUGUGGGGGCAACAGAGGAUUGAGCAUCA
B7: chr7:75932113:75932114:+_ENSG00000106211_ENST00000248553|hu_hu|hu_hu_hu_mus_False|78_98 (ssRNA)
RNA: GGGAGUUCUACAGUCCGACGAUCCUGCGACCACUCAUCCGGCAGCCGGGGCACCCCGAAGGCCUGGUCGAAGAGGCGGCUGUGUGCAGGGUACCAGUCCCGGAAUGGUUCCCAGCUCGGGCUCCGCAGCAGCGAGAAGGGCACCAACAGAGGAUUGAGCAUCA
B8: chr5:6374528:6374529:-_ENSG00000133398_ENST00000255764|hu_hu|FALSE|FALSE (ssRNA)
RNA: GGGAGUUCUACAGUCCGACGAUCAGCUAGAGCCCUCUCCAGGCACUCUUUGGUGUAGAGCUGGGGAUUUCGACCUUGAUCUAUAUAUUCAAAAACUUCUAACGGUACAGUAAUAUCAUGAAGCUGCUGUCUGCACUUGUCAAUCAACAGAGGAUUGAGCAUCA
B9: chr3:10015032:10015033:+_ENSMUSG00000027533_ENSMUST00000029046|mus_mus|mus_mus_mus_hu_True|48_68 (ssRNA)
RNA: GGGAGUUCUACAGUCCGACGAUCGUUUUUACCAUCACAAGUGAUGAUACAAUCUGGCUUGGCCAUUGCAGCCAUCUUUCGCAAAGCCAGUCCUACUCCUAGCUCCUUCAUGUAUUCAUCAAAGCCUUUGCUGUCCACCAGGCGCAACAGAGGAUUGAGCAUCA
B10: chr5:128448638:128448639:+_ENSG00000066583_ENST00000173527|hu_mus|hu_hu_hu_mus_False|48_98 (ssRNA)
RNA: GGGAGUUCUACAGUCCGACGAUCGGCACUCGCCUUAAUUAGAUUCUGAAUUUCCUUGAACUUCGGGUGGUCUUUGUCAGCCACCAGCUGAAGCAGAACAGCCUCACUAGUGGUCACGAUGAUCCCAGUGCGGGCAAGACGCUCCAACAGAGGAUUGAGCAUCA
B11: 97373864_97376299_1737_CDS_ENSG00000059573_ENST00000371224|human|control|control (ssRNA)
RNA: GGGAGUUCUACAGUCCGACGAUCAUCUAUCAUUUUGUCUAGGCGGCAAAGAUCUUCAACUUCUUCUCUGGUAUUCACCAGUUGCACGGCCUCCUUGACUCCAUGGAUUGAGAGAGCCUCCUGGGUCAGGAGGUGGAGAAUCCGCAACAGAGGAUUGAGCAUCA
B12: chr2:115890611:115890612:-_ENSMUSG00000027210_ENSMUST00000102538|mus_hu|motif|central (ssRNA)
RNA: GGGAGUUCUACAGUCCGACGAUCCAAUAAACUCCUGGAUGUGUCGUAUAUUUAAUAUCCCAGUCCGGAUAAGAAAGUGAUCGGGGCUGAAGAUUCCUUUUUUUUUUUUCCAAACCAAAGAGACUUCUCCCAAUUCUCCAAUAUCAACAGAGGAUUGAGCAUCA
B13: chr4:76721835:76721836:+_ENSG00000138768_ENST00000264904|hu_mus|hu_hu_hu_mus_True|1_38 (ssRNA)
RNA: GGGAGUUCUACAGUCCGACGAUCGUUUGGCUGGGGUUUCUGAGACGCUCUGGAAUAUAACUCAUGUUUGCUAAUAAAUCCUAGUUUCUCUAUGAAAUCUCUUUGCCCAAUCCUCUUCUCUAUUAGUUGCUUUAGUUCUCUUUCCAACAGAGGAUUGAGCAUCA
B14: chr22:29966471:29966472:-_ENSG00000184117_ENST00000216121|hu_mus|FALSE|FALSE (ssRNA)
RNA: GGGAGUUCUACAGUCCGACGAUCAGUCUCCUUCUUGGACAGCAGAGUGGAGUGGGCGUCCUUCCGAGGAUCCACCUUGUGGACAAAGAGGGAACGGAACCAGCUUCCUUCACUGUCCUUGGAAUAGAAGCGCACAGCACCCGCCAACAGAGGAUUGAGCAUCA
B15: chr16:32231720:32231721:-_ENSMUSG00000035764_ENSMUST00000042732|mus_mus|FALSE|FALSE (ssRNA)
RNA: GGGAGUUCUACAGUCCGACGAUCUUGACAAAUUUAAUUCUCAAGGACCCCAAGAACCCCAGCGAGUCACUCUCUGUCCCUAAUUUUAUUAGAUUUAAAACAAAAUAUACAUACAGCAAUCAUGUAAAAAGUACAAAGAUUUUACAACAGAGGAUUGAGCAUCA
B16: chr12:39756943:39756944:-_ENSG00000139116_ENST00000544797|hu_mus|hu_hu_hu_mus_False|18_68 (ssRNA)
RNA: GGGAGUUCUACAGUCCGACGAUCGGUUUGGCUGUUACCCCCAAGGGAAUCCUGCAAGAGUCUUGUCAGCUUGGAAUCUCUGUAAGGGACAUGGGUGGCUCUCUUGCUCUUGUCCCCCAAGGCACUUAUUACAUUCCCAAGAGCCAACAGAGGAUUGAGCAUCA
B17: chr9:33280828:33280829:+_ENSG00000086065_ENST00000223500|hu_hu|motif|central (ssRNA)
RNA: GGGAGUUCUACAGUCCGACGAUCUCCUAGUCCCAUAAUAUGUGUUUGUUUUACAAGAUAUGCUUGAAUGAUGCAAAUCGGUGAAGCAGGGAUCUGUGGCAAUCCAAAUUCAUCCACCAGAACUCCAUCCUUGUUUUUUGUAUCCAACAGAGGAUUGAGCAUCA
B18: 21786388_21788020_588_3pUTR_ENSMUSG00000028248_ENSMUST00000108229|mouse|control|control (ssRNA)
RNA: GGGAGUUCUACAGUCCGACGAUCUUGCCAAUAAGGAGGAUGAAAUCCACCUUGUGGUGGACCAAAAGCAGCCCCAUGCUGAUAGUCAAACUGGUUCACCGGCCCCACUGCAAAGUUAUCAGGUGGUCCACCAAAGUUGUGAUUCAACAGAGGAUUGAGCAUCA
B19: chr2:232320318:232320319:-_ENSG00000115053_ENST00000322723|hu_hu|hu_hu_hu_mus_True|58_78 (ssRNA)
RNA: B1 RNA with G27A, G30A, G72A, C90A, G96A, G102C, C111U, C114U, U120G
B20: chr3:133126781:133126782:-_ENSMUSG00000040943_ENSMUST00000098603|mus_hu|FALSE|FALSE (ssRNA)
RNA: GGGAGUUCUACAGUCCGACGAUCUAUUUAUAACCAUCCUCAGAUCUUAUAAACCAAACAUCUCAUGAAAAUGAAAUGAAACUAGUUUUUAAAAAAGCAUAGAAAAAUGCACACAGAAGUUAUCUUAGUGUCAAACUGCAAAAGCAACAGAGGAUUGAGCAUCA
B21: chr9:120860725:120860726:+_ENSMUSG00000006932_ENSMUST00000007130|mus_mus|FALSE|FALSE (ssRNA)
RNA: GGGAGUUCUACAGUCCGACGAUCCAUUUUAGCUCCUUCCUGAUGGAGCAGGAGAUUAUGCAGUGUCGUGAUGGCGUAGAACAGUACAGAAUCCACUGGUGACCCAAGCAUUUUCACCAGCGCUGGGAUGCCACCAGACUUAAACAACAGAGGAUUGAGCAUCA
B22: 134350691_134351898_1818_CDS_ENSMUSG00000042046_ENSMUST00000045110|mouse|control|control (ssRNA)
RNA: GGGAGUUCUACAGUCCGACGAUCGCUGAGGCUGUCGAUGGCUUCCUGGGCCACCUUCCUCUUCCACUCUAGAGUGAUGGUGGGUGGGUUCACCCAUGUGAUACGCUGGAUGAUCUGCUUGAUUUGUUCCCAAAGCAUCCGAGUCAACAGAGGAUUGAGCAUCA

Molecular target: T1, UNK ZnF1-3
Experiment: nsRBNS (natural sequence RNA bind-n-seq); RBNS binding buffer (assumed for nsRBNS): 25 mM Tris pH 7.5, 150 mM KCl, 3 mM MgCl2, 0.01% Triton X-100, 500 ug/ml BSA, 20 U/ml SUPERase-In, 4 C; UNK is unkempt and MSI1 is Musashi-1; names of the RNAs are library labels; protein concentration not given here; high values mean tight binding

Binder | binding signal
B1 | 0.903 enrichment R
B2 | 2.53 enrichment R
B3 | 0.443 enrichment R
B4 | 0.911 enrichment R
B5 | 0.858 enrichment R
B6 | 1.27 enrichment R
B7 | 0.784 enrichment R
B8 | 1.12 enrichment R
B9 | 0.668 enrichment R
B10 | 0.717 enrichment R
B11 | 0.4 enrichment R
B12 | 0.911 enrichment R
B13 | 0.393 enrichment R
B14 | 1.36 enrichment R
B15 | 2.16 enrichment R
B16 | 0.605 enrichment R
B17 | 0.987 enrichment R
B18 | 0.934 enrichment R
B19 | 0.603 enrichment R
B20 | 0.845 enrichment R
B21 | 0.629 enrichment R
B22 | 0.479 enrichment R
